{
  "source": "PubChem BioAssay AID686979",
  "about": "(National Center for Advancing Translational Sciences (NCATS), 2013)",
  "note": "“And” between values parts separate entries of the source, which are not always exact repeats. Equal entries are not always repeated. Out of some 420,000 compounds screened, about 50,000 (12%) were called active. Inconclusive results, whose numbers are uncertain, are shown with a selection of clear calls. The call rests on the fitted dose curve; in most records, active means well fitted inhibition curve with a large enough effect; inconclusive means small, poorly fitted or top-dose-only effect; inactive means flat fitted curve, though single readings scatter. Potencies of inconclusive entries are doubtful fits and often do not repeat. On the % scale 0 is the no-effect control and ±100 the full control effect; potency means the concentration at half of the fitted maximal effect; tags describe the fitted curve by direction and shape.",
  "data": [
    {"assay": "qHTS for Inhibitors of human tyrosyl-DNA phosphodiesterase 1 (TDP1): qHTS in cells in presence of CPT; further: nearly all actives have a fitted effect of over 55% in size", "conditions": "chicken DT40 Tdp1-/-;hTDP1 cells + 20 nM CPT, ATP luminescence, 48 h; activity change, negative = growth inhibition: at 46.2 µM (top of the series) unless noted", "summary_of_the_method": "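Cell growth measured by CellTiter-Glo luminescence after a minimum 48 h, 37 C compound exposure with 20 nM CPT in Tdp1-knockout DT40 cells stably expressing hTDP1, seeded 400/well; qHTS titration format.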", "values": [
      {"smiles": "CN1CCN(C2Cc3ccccc3Sc3cc(C(F)(F)F)ccc32)CC1", "note": "(stereo not drawn)", "Potency": "inconclusive: 29.1 µM [inhibitor, single point]"},
      {"smiles": "Cc1ccc(NC(=O)c2ccccc2OCC(=O)Nc2ccccc2F)cc1S(=O)(=O)N(C)C", "Potency": "active: 16.4 µM"},
      {"smiles": "O=C(/C=C/c1ccccc1Cl)N(Cc1ccc(Cl)cc1)C1CCS(=O)(=O)C1", "note": "(stereo not drawn)", "Potency": "inconclusive: 20.6 µM [inhibitor, single point]"},
      {"smiles": "COc1ccc(NC(=O)c2oc3ccccc3c2C)cn1", "Potency": "inconclusive: 29.1 µM [inhibitor, single point]"},
      {"smiles": "Cn1c(=O)c(C(=O)COc2ccc(F)cc2Cl)c(N)n(Cc2ccccc2)c1=O", "Potency": "inconclusive: 14.6 µM [inhibitor, partial curve]"},
      {"smiles": "CCS(=O)(=O)N1CCN=C1SCc1cccnc1", "Potency": "inconclusive: 6.51 µM [inhibitor, single point]"},
      {"smiles": "c1ccc2[nH]c(-c3ccc4c(c3)OCO4)nc2c1", "Potency": "inconclusive: 11.6 µM [inhibitor, partial curve]"},
      {"smiles": "Cc1cc(C(=O)CSc2nn(-c3ccccc3)c(=S)s2)c(C)n1Cc1ccco1", "activity change, negative = growth inhibition": "inconclusive: -30.2% [inhibitor]"},
      {"smiles": "O=C(CSc1oc(-c2cccs2)nc1S(=O)(=O)c1ccc(F)cc1)NCC1CCCO1", "note": "(stereo not drawn)", "Potency": "inconclusive: 29.1 µM [inhibitor, single point]"},
      {"smiles": "CCOc1ccccc1N=Cc1c(O)c2ccccc2oc1=O", "Potency": "inconclusive: 14.6 µM [inhibitor, partial curve]"},
      {"smiles": "Cc1cccc(C(=O)NCCC(=O)NCc2ccccc2F)c1", "Potency": "inactive"},
      {"smiles": "Cc1ccc(C(=O)N2CCN(c3ncccn3)CC2)c(C)c1", "Potency": "inactive"},
      {"smiles": "O=C(N/N=C/c1cc([N+](=O)[O-])ccc1Cl)c1cc(-c2ccccc2)nc2ccccc12", "Potency": "inconclusive: 1.64 µM [inhibitor, full curve]"},
      {"smiles": "COc1cccc(-c2nc(N3CC(C)CC(C)C3)c3ccccc3n2)c1O", "note": "(stereo not drawn)", "Potency": "inconclusive: 29.1 µM [inhibitor, single point]"},
      {"smiles": "Cc1ccc(C)c(N2CCN(C(=O)C3CCN(S(=O)(=O)c4cccc5nsnc45)CC3)CC2)c1", "Potency": "active: 18.4 µM"},
      {"smiles": "COc1ccc(-c2cc(=O)[nH]c(N3CCN(Cc4ccccc4)CC3)n2)cc1", "Potency": "inconclusive: 29.1 µM [inhibitor, single point]"},
      {"smiles": "CC(Oc1ccccc1Cl)C(=O)Nc1ccc(S(=O)(=O)N2CCN(C)CC2)cc1", "note": "(stereo not drawn)", "Potency": "inconclusive: 20.6 µM [inhibitor, single point]"},
      {"smiles": "CC1CCCCC1NC(=O)COCc1cc(-c2cccs2)on1", "note": "(stereo not drawn)", "Potency": "inconclusive: 32.6 µM [inhibitor, single point]"},
      {"smiles": "COc1ccc(NC(=O)COC(=O)c2ccc(-n3nc(C)cc3C)cc2)cc1OC", "activity change, negative = growth inhibition": "inconclusive: -36.1% [inhibitor]"},
      {"smiles": "Cn1c(N2CCN(C(c3ccccc3)c3ccccc3)CC2)nc2c1c(=O)[nH]c(=O)n2C", "Potency": "active: 20.6 µM"},
      {"smiles": "O=C(Nc1nc2ccccc2n1CCN1CCCCC1)c1ccco1", "Potency": "inconclusive: 29.1 µM [inhibitor, single point]"},
      {"smiles": "CCCCn1c(SCC(=O)N2CCOCC2)nc2c1c(=O)n(C)c(=O)n2C", "Potency": "inactive"},
      {"smiles": "COc1cc(Cl)c(CN2CCCC(CO)(Cc3ccccc3)C2)cc1OC", "note": "(stereo not drawn)", "Potency": "inconclusive: 29.1 µM [inhibitor, single point]"},
      {"smiles": "CN1CCN(C2=Cc3ccc(Cl)cc3Sc3ccc(F)cc32)CC1", "Potency": "active: 23.1 µM"},
      {"smiles": "COc1cccc(NC(=O)CCC2CCN(Cc3nccs3)CC2)c1", "Potency": "inactive"},
      {"smiles": "Cc1ccsc1C(=O)NCCc1nnc2ccccn12", "Potency": "inactive"},
      {"smiles": "Cc1cc(C)nc(N/N=C/C2=C(N3CCOCC3)C(=C/c3ccccc3)/CC2)n1", "Potency": "active: 16.4 µM"},
      {"smiles": "O=C(Cc1c(F)cccc1Cl)Nc1ccccc1C(=O)N1CCOCC1", "Potency": "inactive"},
      {"smiles": "CC1Cc2ccccc2N1S(=O)(=O)c1cccc(C(=O)NCC(c2ccco2)N2CCCC2)c1", "note": "(stereo not drawn)", "Potency": "inconclusive: 29.1 µM [inhibitor, single point]"},
      {"smiles": "Cc1c(C(=O)OCCOc2ccccc2)[nH]c2c1C(=O)CC(c1ccccc1Cl)C2", "note": "(stereo not drawn)", "Potency": "active: 1.46 µM"},
      {"smiles": "CN(C)c1ccc(C(CNS(=O)(=O)c2ccc3ccccc3c2)c2c[nH]c3ccccc23)cc1", "note": "(stereo not drawn)", "Potency": "inconclusive: 16.4 µM [inhibitor, single point]"},
      {"smiles": "COc1cc(NC(=O)c2nccnc2N)cc(C(=O)Nc2cccc(C(F)(F)F)c2)c1", "Potency": "inconclusive: 20.6 µM [inhibitor, single point] and inconclusive: 23.1 µM [inhibitor, single point]"},
      {"smiles": "COc1ccc(CCNC(=O)c2cc3c(=O)n4cccc(C)c4nc3n(Cc3ccco3)c2=N)cc1OC", "Potency": "inconclusive: 29.1 µM [inhibitor, single point]"},
      {"smiles": "Cc1cc(OCCOc2cccc3cccnc23)cc(C)c1Cl", "Potency": "active: 14.6 µM"},
      {"smiles": "CN(C(=O)COC(=O)/C=C/c1cccs1)c1c(N)n(Cc2ccccc2)c(=O)[nH]c1=O", "Potency": "inactive"},
      {"smiles": "CN(C)/C=C/C(=O)c1ccc(-n2cccc2)cc1", "Potency": "inactive"},
      {"smiles": "O=C1CCCCCN1CP(=O)(O)CN1CCCCCC1=O", "Potency": "inactive"},
      {"smiles": "CCc1ccc(/C=c2\\s/c(=C\\C(=O)C(C)(C)C)[nH]c2=O)cc1", "Potency": "inconclusive: 23.1 µM [inhibitor, single point]"},
      {"smiles": "O=[N+]([O-])c1ccccc1S(=O)(=O)Nc1ccc(S(=O)(=O)Nc2nccs2)cc1", "Potency": "inconclusive: 29.1 µM [inhibitor, single point]"},
      {"smiles": "CN(C)c1ccc(CNC(=O)c2cccn2-c2nnc(N3CCCCC3)s2)cc1", "Potency": "active: 18.4 µM"},
      {"smiles": "CC(/C=N/NC(=O)c1cnccn1)=C\\c1ccco1", "Potency": "inactive"},
      {"smiles": "CC(C)(C)c1ccc(OCCN2CCCC2)cc1", "Potency": "inactive"},
      {"smiles": "Cc1ccc(C(=O)CSc2nnc(CNc3nc(-c4ccccc4)cs3)n2C)cc1", "Potency": "inconclusive: 29.1 µM [inhibitor, single point]"},
      {"smiles": "Cc1c(C(=O)N2CCN(S(=O)(=O)c3ccccc3)CC2)oc2ccccc12", "Potency": "inconclusive: 16.4 µM [inhibitor, single point]"},
      {"smiles": "CC(C)c1nnc(NC(=O)CCC(=O)Nc2ccc3cn[nH]c3c2)s1", "Potency": "inactive"},
      {"smiles": "CCOc1ccc(CCN2C(=S)N([C@@H](CC(C)C)CN3CCC[C@@H]3CN3C(=S)NC[C@@H]3Cc3ccc(O)cc3)C[C@@H]2CC(C)C)cc1", "Potency": "inconclusive: 29.1 µM [inhibitor, single point]"},
      {"smiles": "O=C(Nc1ccc(F)cc1)N1CCc2ccccc2C1", "Potency": "inactive"},
      {"smiles": "COc1ccc2[nH]cc(CCNc3ncncc3-c3cccnc3)c2c1", "Potency": "inconclusive: 29.1 µM [inhibitor, single point]"},
      {"smiles": "C=C1SC(Nc2c(C)cccc2C)=NC12CCCCC2", "Potency": "inconclusive: 29.1 µM [inhibitor, single point]"},
      {"smiles": "CN(CC(=O)Nc1ncn[nH]1)S(=O)(=O)c1ccc(Cl)cc1", "Potency": "inactive"},
      {"smiles": "CN=c1scc(-c2ccc(OC)cc2)n1/N=C(\\C)c1cccnc1", "Potency": "inconclusive: 18.4 µM [inhibitor, single point]"},
      {"smiles": "COc1cccc(C(=O)Cn2c(N3CCCCC3)nc3c2c(=O)n(C)c(=O)n3C)c1", "Potency": "inconclusive: 23.1 µM [inhibitor, partial curve]"},
      {"smiles": "O=c1ccc2cc(S(=O)(=O)NCc3ccccc3)ccc2[nH]1", "Potency": "inactive"},
      {"smiles": "O=C(NCc1ccc(F)cc1)C(=O)NCC(c1cccs1)S(=O)(=O)c1cccs1", "note": "(stereo not drawn)", "Potency": "inconclusive: 23.1 µM [inhibitor, single point]"},
      {"smiles": "Cn1nnnc1SCCNCc1ccccc1F", "Potency": "inactive"},
      {"smiles": "Cc1nn2c(-c3cccnc3)ccnc2c1-c1ccccc1", "Potency": "inconclusive: 29.1 µM [inhibitor, single point]"},
      {"smiles": "Cc1ccc(C)c(C(C)NC(=S)NCc2ccc(F)cc2)c1", "note": "(stereo not drawn)", "Potency": "active: 23.1 µM"},
      {"smiles": "CCC(=O)N1CCc2cc(S(=O)(=O)N(CC)c3cccc(C)c3)ccc21", "Potency": "inconclusive: 18.4 µM [inhibitor, single point]"},
      {"smiles": "c1cncc(-c2ccc3ncnc(N4CCNCC4)c3c2)c1", "Potency": "inconclusive: 29.1 µM [inhibitor, single point]"},
      {"smiles": "Clc1cccc(CSc2ncn(-c3ccccc3)n2)c1", "Potency": "inactive"},
      {"smiles": "Cc1ccc2c(=O)n3c(nc2c1)C(Cc1ccccc1)NC(=O)c1cccnc1-3", "note": "(stereo not drawn)", "Potency": "inactive"},
      {"smiles": "Brc1ccccc1OCCCOc1cccc2cccnc12", "Potency": "inconclusive: 29.1 µM [inhibitor, single point]"},
      {"smiles": "COc1ccccc1CNC(=O)c1ccc2c(c1)N(Cc1ccc(C)cc1)CCS2", "Potency": "active: 16.4 µM"},
      {"smiles": "CC[N+](C)(C)c1ccc(/C=C/c2ccncc2)cc1", "Potency": "active: 0.708 µM"},
      {"smiles": "N#C/C(=C\\c1ccccc1)C(=O)NNS(=O)(=O)c1cccc([N+](=O)[O-])c1", "Potency": "inconclusive: 3.26 µM [inhibitor, full curve, poor fit]"},
      {"smiles": "CNc1cc(C(F)(F)F)nc(-c2ccccn2)n1", "Potency": "inconclusive: 29.1 µM [inhibitor, single point]"},
      {"smiles": "CC(C)n1c(CN(C)Cc2ccccc2)nc2c1c(=O)n(C)c(=O)n2C", "Potency": "active: 0.731 µM"},
      {"smiles": "CCN(CC)S(=O)(=O)c1ccc2c(c1)N(CC(=O)NCC(C)c1ccccc1)C(=O)CO2", "note": "(stereo not drawn)", "Potency": "inconclusive: 29.1 µM [inhibitor, single point]"},
      {"smiles": "COc1ccc2cc(C3c4cc(OC)c(OC)cc4CCN3C(=O)c3ccco3)c(=O)[nH]c2c1", "note": "(stereo not drawn)", "Potency": "inactive"},
      {"smiles": "CCn1c(SCC(=O)NCC2CCCO2)nc2ccccc21", "note": "(stereo not drawn)", "Potency": "inactive"},
      {"smiles": "Clc1cccc(Nc2ncnc3c2cnn3-c2ccccc2)c1", "Potency": "inconclusive: 16.4 µM [inhibitor, single point]"},
      {"smiles": "COc1cc(-c2cc(-c3ccccc3)nc(SCC(=O)Nc3nccs3)c2C#N)cc(OC)c1OC", "Potency": "inconclusive: 29.1 µM [inhibitor, single point]"},
      {"smiles": "Cc1ccc2cc(CCNS(=O)(=O)c3ccc(F)cc3)c(=O)[nH]c2c1", "Potency": "active: 20.6 µM"}
    ]}
  ]
}
